{"source": "the supplement of paper PMC8728848", "binders": {"B1": {"name": "rAAL-I144G (Agrocybe aegerita), Q6WY08 (protein)", "chain": "MQGVNIYNISAGTSVDLAAPVTTGDIVTFFSSALNLNAGAGNPNNTTLNLFAENGAYLLHIAFRLQENVIIFNSRQPDGPWLVEQRVSDVANQFAGIDGKAMVTVFDHGDKYQVVINEKTVIQYTKQISGLTLSLSYNATEETSGFSTVVEAVTYTGLALEHHHHHH"}}, "assay_in_all_cases": "glycan array binding signal (z-score within array); higher = stronger binding", "conditions_in_all_cases": "glycan notation: IUPAC condensed, linker removed; mutation: I144G", "key": {"[1]": {"target": "Gal3S(b1-3)[Fuc(a1-4)]GlcNAc", "procedure,_shortened": "(§1)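 The binding signal is a Z-score computed within each array and averaged over linkers. Arrays of the same protein sequence at different concentrations or buffers were also averaged together. Data originate from 3228 arrays in the Consortium for Functional Glycomics database, kept only where the protein sequence was available.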"}, "[2]": {"target": "Gal3S(b1-4)Glc", "procedure,_shortened": "as §1"}, "[3]": {"target": "Gal3S(b1-4)Glc6S", "procedure,_shortened": "as §1"}, "[4]": {"target": "Gal3S(b1-4)GlcNAc", "procedure,_shortened": "as §1"}, "[5]": {"target": "Gal3S(b1-4)[Fuc(a1-3)]Glc6S", "procedure,_shortened": "as §1"}, "[6]": {"target": "Gal3S(b1-4)[Fuc(a1-3)]GlcNAc", "procedure,_shortened": "as §1"}, "[7]": {"target": "Gal3S(b1-4)[Fuc(a1-3)]GlcNAc6S", "procedure,_shortened": "as §1"}, "[8]": {"target": "Gal3S4S(b1-4)GlcNAc", "procedure,_shortened": "as §1"}, "[9]": {"target": "Gal3S6S(b1-4)GlcNAc", "procedure,_shortened": "as §1"}, "[10]": {"target": "Gal3S6S(b1-4)GlcNAc6S", "procedure,_shortened": "as §1"}, "[11]": {"target": "Gal4S(b1-4)GlcNAc", "procedure,_shortened": "as §1"}, "[12]": {"target": "Gal4S6S(b1-4)GlcNAc", "procedure,_shortened": "as §1"}, "[13]": {"target": "Gal6P(b1-4)GlcNAc", "procedure,_shortened": "as §1"}, "[14]": {"target": "Gal6S(b1-3)GlcNAc", "procedure,_shortened": "as §1"}, "[15]": {"target": "Gal6S(b1-3)GlcNAc6S", "procedure,_shortened": "as §1"}, "[16]": {"target": "Gal6S(b1-4)Glc", "procedure,_shortened": "as §1"}, "[17]": {"target": "Gal6S(b1-4)Glc6S", "procedure,_shortened": "as §1"}, "[18]": {"target": "Gal6S(b1-4)GlcNAc", "procedure,_shortened": "as §1"}, "[19]": {"target": "Gal6S(b1-4)GlcNAc6S", "procedure,_shortened": "as §1"}, "[20]": {"target": "GalNAc(a1-3)Gal", "procedure,_shortened": "as §1"}, "[21]": {"target": "GalNAc(a1-3)GalNAc", "procedure,_shortened": "as §1"}, "[22]": {"target": "GalNAc(a1-3)GalNAc(b1-3)Gal(a1-4)Gal(b1-4)Glc", "procedure,_shortened": "as §1"}, "[23]": {"target": "GalNAc(a1-3)GalNAc(b1-3)Gal(a1-4)Gal(b1-4)GlcNAc", "procedure,_shortened": "as §1"}, "[24]": {"target": "GalNAc(b1-3)Gal", "procedure,_shortened": "as §1"}, "[25]": {"target": "GalNAc(b1-3)Gal(a1-4)Gal(b1-4)GlcNAc", "procedure,_shortened": "as §1"}, "[26]": {"target": "GalNAc(b1-3)Gal(a1-4)Gal(b1-4)GlcNAc(b1-3)Gal(b1-4)Glc", "procedure,_shortened": "as §1"}, "[27]": {"target": "GalNAc(b1-3)Gal(a1-6)Gal(b1-4)Glc", "procedure,_shortened": "as §1"}, "[28]": {"target": "GalNAc(b1-3)GalNAc", "procedure,_shortened": "as §1"}, "[29]": {"target": "GalNAc(b1-3)GlcNAc", "procedure,_shortened": "as §1"}, "[30]": {"target": "GalNAc(b1-4)Gal(b1-4)Glc", "procedure,_shortened": "as §1"}, "[31]": {"target": "GalNAc(b1-4)GlcNAc", "procedure,_shortened": "as §1"}, "[32]": {"target": "GalNAc(b1-4)GlcNAc(b1-2)Man", "procedure,_shortened": "as §1"}, "[33]": {"target": "GalNAc(b1-4)GlcNAc(b1-2)Man(a1-3)[GalNAc(b1-4)GlcNAc(b1-2)Man(a1-6)]Man(b1-4)GlcNAc(b1-4)GlcNAc", "procedure,_shortened": "as §1"}, "[34]": {"target": "GalNAc(b1-4)GlcNAc(b1-3)GalNAc(b1-4)GlcNAc", "procedure,_shortened": "as §1"}, "[35]": {"target": "GalNAc(b1-4)GlcNAc6S", "procedure,_shortened": "as §1"}, "[36]": {"target": "GalNAc(b1-6)GalNAc", "procedure,_shortened": "as §1"}, "[37]": {"target": "GalNAc3S(b1-4)GlcNAc", "procedure,_shortened": "as §1"}, "[38]": {"target": "GalNAc3S(b1-4)GlcNAc3S", "procedure,_shortened": "as §1"}, "[39]": {"target": "GalNAc3S(b1-4)[Fuc(a1-3)]GlcNAc", "procedure,_shortened": "as §1"}, "[40]": {"target": "GalNAc4S6S(b1-4)GlcNAc", "procedure,_shortened": "as §1"}, "[41]": {"target": "GalNAc6S(b1-4)GlcNAc", "procedure,_shortened": "as §1"}, "[42]": {"target": "Glc(a1-4)Glc", "procedure,_shortened": "as §1"}, "[43]": {"target": "Glc(a1-4)Glc(a1-4)Glc(a1-4)Glc", "procedure,_shortened": "as §1"}, "[44]": {"target": "Glc(a1-6)Glc(a1-6)Glc", "procedure,_shortened": "as §1"}, "[45]": {"target": "Glc(a1-6)Glc(a1-6)Glc(a1-6)Glc", "procedure,_shortened": "as §1"}}, "note": "This is one part of the list."}
{"binder": "B1", "values": [{"measurement": "glycan array binding signal (z-score)", "setting": "[1]", "value": -0.113}, {"measurement": "glycan array binding signal (z-score)", "setting": "[2]", "value": -0.035}, {"measurement": "glycan array binding signal (z-score)", "setting": "[3]", "value": 0.763}, {"measurement": "glycan array binding signal (z-score)", "setting": "[4]", "value": 0.004}, {"measurement": "glycan array binding signal (z-score)", "setting": "[5]", "value": -0.002}, {"measurement": "glycan array binding signal (z-score)", "setting": "[6]", "value": -0.011}, {"measurement": "glycan array binding signal (z-score)", "setting": "[7]", "value": 0.087}, {"measurement": "glycan array binding signal (z-score)", "setting": "[8]", "value": -0.19}, {"measurement": "glycan array binding signal (z-score)", "setting": "[9]", "value": -0.161}, {"measurement": "glycan array binding signal (z-score)", "setting": "[10]", "value": -0.138}, {"measurement": "glycan array binding signal (z-score)", "setting": "[11]", "value": -0.146}, {"measurement": "glycan array binding signal (z-score)", "setting": "[12]", "value": -0.086}, {"measurement": "glycan array binding signal (z-score)", "setting": "[13]", "value": -0.119}, {"measurement": "glycan array binding signal (z-score)", "setting": "[14]", "value": -0.045}, {"measurement": "glycan array binding signal (z-score)", "setting": "[15]", "value": -0.118}, {"measurement": "glycan array binding signal (z-score)", "setting": "[16]", "value": -0.085}, {"measurement": "glycan array binding signal (z-score)", "setting": "[17]", "value": -0.214}, {"measurement": "glycan array binding signal (z-score)", "setting": "[18]", "value": -0.189}, {"measurement": "glycan array binding signal (z-score)", "setting": "[19]", "value": -0.134}, {"measurement": "glycan array binding signal (z-score)", "setting": "[20]", "value": -0.21}, {"measurement": "glycan array binding signal (z-score)", "setting": "[21]", "value": -0.105}, {"measurement": "glycan array binding signal (z-score)", "setting": "[22]", "value": -0.137}, {"measurement": "glycan array binding signal (z-score)", "setting": "[23]", "value": -0.175}, {"measurement": "glycan array binding signal (z-score)", "setting": "[24]", "value": -0.071}, {"measurement": "glycan array binding signal (z-score)", "setting": "[25]", "value": -0.043}, {"measurement": "glycan array binding signal (z-score)", "setting": "[26]", "value": -0.146}, {"measurement": "glycan array binding signal (z-score)", "setting": "[27]", "value": -0.107}, {"measurement": "glycan array binding signal (z-score)", "setting": "[28]", "value": -0.1}, {"measurement": "glycan array binding signal (z-score)", "setting": "[29]", "value": -0.152}, {"measurement": "glycan array binding signal (z-score)", "setting": "[30]", "value": -0.133}, {"measurement": "glycan array binding signal (z-score)", "setting": "[31]", "value": -0.124}, {"measurement": "glycan array binding signal (z-score)", "setting": "[32]", "value": -0.211}, {"measurement": "glycan array binding signal (z-score)", "setting": "[33]", "value": -0.132}, {"measurement": "glycan array binding signal (z-score)", "setting": "[34]", "value": -0.14}, {"measurement": "glycan array binding signal (z-score)", "setting": "[35]", "value": -0.1}, {"measurement": "glycan array binding signal (z-score)", "setting": "[36]", "value": -0.181}, {"measurement": "glycan array binding signal (z-score)", "setting": "[37]", "value": -0.159}, {"measurement": "glycan array binding signal (z-score)", "setting": "[38]", "value": -0.037}, {"measurement": "glycan array binding signal (z-score)", "setting": "[39]", "value": -0.182}, {"measurement": "glycan array binding signal (z-score)", "setting": "[40]", "value": -0.051}, {"measurement": "glycan array binding signal (z-score)", "setting": "[41]", "value": -0.033}, {"measurement": "glycan array binding signal (z-score)", "setting": "[42]", "value": -0.109}, {"measurement": "glycan array binding signal (z-score)", "setting": "[43]", "value": -0.031}, {"measurement": "glycan array binding signal (z-score)", "setting": "[44]", "value": -0.103}, {"measurement": "glycan array binding signal (z-score)", "setting": "[45]", "value": -0.13}]}
